Laboratory results from PubChem BioAssay AID493208 (National Center for Advancing Translational Sciences (NCATS), 2011).
Hit rate of the full screen: of about 44,000 compounds, about 340 (0.77%) were called active. About 5% were inconclusive and are not listed. Calls come from the whole dose curve; as a rule, active = well fitted inhibition curve with a large enough effect; inconclusive = small, poorly fitted or top-dose-only effect; inactive = flat fitted curve, though single readings scatter. This is one part of the list.

Test: Acumen qHTS Assay for Inhibitors of the mTORC1 Signaling Pathway in MEF (Tsc2-/-, p53-/-) Cells: Sytravon;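 note: plate controls were DMSO for no effect and rapamycin for full effect; nearly all actives have a fitted effect of over 50% in size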
Conditions: phospho-rpS6 immunofluorescence/PI, 24 h; series mostly up to 38.3 µM; activity change, negative = inhibition: at the top concentration
Summary of the method: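 Tsc2-/-, p53-/- mouse embryonic fibroblasts (empty-vector line) exposed to compound 24 hrs at 37 C, fixed, immunostained for phospho-rpS6 and counterstained with propidium iodide. Acumen laser scanning gives % positive cells from Alexa 488/PI ratio, thresholded using 7.5 nM rapamycin; PI count gives viability.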

Compound	activity change, negative = inhibition
Cc1ccc(-c2nnc(C3CCN(S(=O)(=O)c4ccc(C)c(C)c4)CC3)o2)cc1	inactive: -21.1%
Cn1c(-n2cccc2)c(-c2c(-c3ccccc3)[nH]c3c2c(=O)n(C)c(=O)n3C)c(=O)n(C)c1=O	inactive: -0.701%
CCCCOC(=O)c1ccc(NC(=O)CSc2nc3c(c(=O)[nH]2)CCCC3)cc1	inactive: 4.1%
Cc1ccccc1CN1C(=O)c2ccccc2Sc2ccc(C(=O)NC(C)c3ccccc3)cc21 (stereo unspecified)	inactive: -6.49%
COc1ccc(NC(=O)CC2C(=O)N(c3ccc(F)cc3)C(=O)N2Cc2ccco2)cc1 (stereo unspecified)	inactive: -6.84%
Cc1ccc(N2C(=O)CCSC23C(=O)N(Cc2ccccc2)c2ccccc23)cc1F (stereo unspecified)	inactive: -14.4%
Cc1cc(C)cc(NS(=O)(=O)c2ccc3[nH]cc(C(=O)N(C)Cc4ccccc4)c(=O)c3c2)c1	inactive: -7.19%
O=C(NCc1ccc(F)cc1)c1cc2c(=O)n3ccccc3nc2s1	inactive: 3.08%
O=C(NCc1ccccc1)c1nn(-c2ccccc2)nc1CO	inactive: -1.1%
COc1ccc(OC)c(/C=C(/C#N)c2nc(-c3ccc(-c4ccccc4)cc3)cs2)c1	inactive: -6.41%
Cc1ccc(CNC(=O)Cn2c(=O)n(-c3ccc(Cl)cc3)c(=O)c3c(C)c(C)sc32)cc1	inactive: -19.1%
CCCCNc1nc2c(S(=O)(=O)c3ccc(C)c(C)c3)nnn2c2ccsc12	inactive: -13.2%
Cc1ccc(CSc2nc3c([nH]c4ccccc43)c(=O)n2C)cc1	inactive: 2.14%
Cc1c(-c2nc(-c3ccccc3)no2)nnn1-c1cccc(C(F)(F)F)c1	inactive: 10.6%
COc1cc(Nc2ncc3c(n2)CCN(Cc2cc(Br)cs2)C3)cc(OC)c1	inactive: 5.55%
COC(=O)c1ccccc1NC(=O)c1ccc2c(c1)CCN2S(C)(=O)=O	inactive: 2.17%
Cc1cc(Nc2ccc(F)cc2)n2c(nc3ccccc32)c1C#N	inactive: -12.4%
COc1ccccc1CNC(=O)c1ccc2c(c1)nc(C)n2-c1ccccc1OC	inactive: -0.881%
Cc1nn2c(-c3ccco3)ccnc2c1-c1ccc(F)cc1	inactive: -3.35%
COc1ccccc1NC(=O)CN1CCCN(S(=O)(=O)c2ccc(Br)cc2)CC1	inactive: -0.249%
Cc1nc2ccccn2c(=O)c1NC(=O)c1ccc(C(F)(F)F)cc1	inactive: -15.2%
COc1ccc(NC(=O)c2cccn2-c2nnc(N3CCCCC3)s2)cc1Cl	inactive: -13.4%
CCOc1ccc(NC(=O)Cn2c(C)cc3ccccc3c2=O)cc1	inactive: -12.2%
Cc1ccc(NC(=O)Cn2c(=O)n(CCCCC(=O)NCc3ccccc3Cl)c(=O)c3ccccc32)cc1C	inactive: -8.71%

Compound	activity change, negative = inhibition
O=C(O)c1ccc(-n2c(/C=C\c3ccc(O)cc3)nc3ccccc3c2=O)cc1	inactive: 6.37%
COc1ccc(/C=C(\C#N)c2nc(-c3cc4c(ccc5ccccc54)oc3=O)cs2)cc1O	inactive: 3.53%
Cc1ccc(C2=Nc3ccccc3N(CC(=O)NCc3ccc(F)cc3)C(=O)C2)cc1C	inactive: -2.23%
CCOC(=O)c1ccccc1NC(=O)c1sc2ncn(Cc3cccc(F)c3)c(=O)c2c1C	inactive: 2.43%
Cc1ccc(C)c(NC(=O)CSc2c3c(nc4ccc(Cl)cc24)CCCC3)c1	inactive: 2.14%
COc1cn(CC(=O)Nc2cccc(C)c2C)c(CN2CCCCC2)cc1=O	inactive: -0.51%
CC1=C(C(=O)Nc2cccnc2)C(c2ccc(Cl)cc2)n2nc(-c3ccccc3)nc2N1 (stereo unspecified)	inactive: 0.436%
COc1ccc(OC)c(S(=O)(=O)NCc2cccn2Cc2cccc(C)c2)c1	inactive: 4.44%
COc1ccc(C(=O)Nc2cccc(OCc3cc(=O)n4c5c(sc4n3)CCCC5)c2)cc1	inactive: -8.97%
Cn1c(=O)c2c(nc3n(-c4ccc(O)cc4)c(-c4ccc(Br)cc4)cn23)n(C)c1=O	inactive: 3.93%
COc1cccc(C(=O)c2cn(CC(=O)NCc3ccccc3)c3nc(C)ccc3c2=O)c1	inactive: 2.58%
COC(=O)c1sc(NC(=O)/C=C/c2ccc(OC)c(OC)c2)c(C(=O)OC)c1C	inactive: 2.79%
COc1ccc(CNC(=O)CSc2nc3ccccc3nc2Cc2ccccc2OC)cc1	inactive: 0.478%
COC(=O)c1cc2c(cc1NC(=O)c1cnn(-c3ccc(C)cc3)c1-n1cccc1)OCO2	inactive: 0%
CC(C)NC(=O)CCCN1C(=O)CCn2nc(-c3cccn3C)cc21	inactive: 0%
CCN1CCN(c2cc3c(cc2F)c(=O)c(S(=O)(=O)c2ccccc2)cn3C)CC1	inactive: -1.41%
COc1ccccc1-c1cc(C(=O)Nc2ccccc2C(F)(F)F)no1	inactive: -18%
COc1ccccc1NC(=O)CSc1nc2ccccc2c2nc(-c3ccccc3)nn12	inactive: -17.6%
Cc1[nH]c2ccccc2c1C1N2CC3(C)CN1CC(C)(C2)C3=O (stereo unspecified)	inactive: 7.48%
Cc1nn(C)c2c1c(C(F)(F)F)cc(=O)n2C(C)C(=O)NCc1ccc(Cl)cc1 (stereo unspecified)	inactive: -14.2%
O=C(Nc1ccc(Br)cc1F)N1CCC(CN2CCCC2)CC1	inactive: -4.82%
CC1=C(C(=O)OCc2ccccc2)C(c2cccc(Cl)c2Cl)CC(=O)N1 (stereo unspecified)	inactive: -11.8%
Cc1cccc(CNC(=O)CSCc2cnn(-c3ccccc3)c2-n2cccc2)c1	inactive: -10.3%
CCOC(=O)c1ccc(NS(=O)(=O)c2cc(-c3onc(C)c3C)ccc2C)cc1	inactive: 4.32%

Compound	activity change, negative = inhibition
COc1cc(OC)c(C2Nc3c(C)cccc3-c3cc(C)nn32)cc1OC (stereo unspecified)	inactive: 1.92%
CCN1C(=O)c2ccccc2S(=O)c2ccc(C(=O)N3CCN(c4cccc(C)c4)C(C)C3)cc21 (stereo unspecified)	inactive: 1.85%
CC1=C(c2ccc(C)cc2)S(=O)(=O)NC1=NCc1cccc(F)c1	inactive: -0.182%
COC(=O)c1ccc(NC(=O)CC2C(=O)N(c3ccc(Cl)cc3)C(=O)N2Cc2ccco2)cc1 (stereo unspecified)	inactive: 0.566%
COc1ccc(NC(=O)CN2CCCN(Cc3ccc(Cl)cc3)S2(=O)=O)cc1Cl	inactive: 6.23%
CCN1c2ccccc2-c2nc(SCC(=O)NCc3ccc(C)cc3)ncc2S1(=O)=O	inactive: 6.4%
COc1ccc(CNC(=O)c2cnc3sc(N4CCCCCC4)nn3c2=O)cc1	inactive: -9.52%
CCOC(=O)c1cnc2ccccc2c1NCCc1ccc(OC)c(OC)c1	inactive: -27%
Cc1sc2ncn(CC(=O)N3CCN(c4ccc(F)cc4)CC3)c(=O)c2c1S(=O)(=O)N1CCC(C)CC1	inactive: -0.287%
COC(=O)C1=C(c2ccccc2)c2ccccc2S(=O)(=O)N1CC(=O)Nc1ccc(F)c(F)c1	inactive: -17.4%
Cc1ccc(CNC(=O)Cn2c(=O)cc(C(F)(F)F)c3c(C)nn(C)c32)cc1	inactive: -1.79%
CCOc1ccc(NC(=O)CN(c2ccc(CC)cc2)S(=O)(=O)c2c(C)noc2C)cc1	inactive: -0.469%
CCOc1ccc(-c2nc(Cn3c(=O)cc(-c4ccccc4)c4c(C)nn(C)c43)c(C)o2)cc1	inactive: 2.51%
Cc1ccc(CNC(=O)C2CCN(S(=O)(=O)c3c(C)noc3/C=C/c3cccs3)CC2)cc1	inactive: -15.4%
O=C(CCS(=O)(=O)c1cc2c(cc1Cl)NC(=O)CO2)NCc1ccccc1Cl	inactive: 4.02%
Oc1c(C(c2ccc(Cl)cc2Cl)N2CCN(c3ccccc3)CC2)sc2nc(-c3ccco3)nn12 (stereo unspecified)	inactive: 2.96%
O=C(NCc1cccc(Cl)c1)c1ccc(NC(=O)N2CC3CCCN3c3ccccc32)cc1 (stereo unspecified)	inactive: 8.43%
CC(C)Oc1ccc(CNC(=O)c2ccc(CN3CC(=O)N4CCCCC4C3=O)cc2)cc1 (stereo unspecified)	inactive: 0.752%
CSc1ncc(C(=O)NCc2cccc(F)c2)c(-c2ccccc2)n1	inactive: -0.207%
CCCc1nc(SC)ncc1C(=O)N1CCN(c2ccc(Cl)cc2)CC1	inactive: -0.0457%
O=c1c2oc3ccccc3c2n(Cc2ccccc2Cl)c(=O)n1Cc1ccco1	inactive: -1.66%
COc1ccc(CN(Cc2ccco2)c2cnc(S(C)(=O)=O)nc2C(=O)Nc2ccc(C)c(Cl)c2)cc1	inactive: -7.03%
CCCn1c(SCc2nc(-c3ccc(OC)c(OC)c3)no2)nnc1-c1ccccc1	inactive: 7.72%
Cc1ccc(NC(=O)c2cnn3c(C(F)F)cc(-c4ccccc4)nc23)cc1F	inactive: -0.14%

Compound	activity change, negative = inhibition
O=C(NCCc1ccccc1)C1CCC(CNS(=O)(=O)c2ccccc2)CC1 (stereo unspecified)	inactive: -14.7%
CC(C)Oc1ccc(C(=O)N2CCN(CCc3ccccn3)CC2)cc1	inactive: -0.107%
COc1ccc(OC)c(CNC(=O)c2ccc(-c3nc(CSc4ccccc4)c(C)o3)cc2)c1	inactive: -6.09%
CC1CCc2nn(CC(=O)Nc3ccccc3Cl)cc2C1 (stereo unspecified)	inactive: 1.26%
CCOc1ccc(NC(=O)NCCc2c(C)nn(C)c2C)cc1	inactive: 0%
COc1ccc(NC(=O)C(=O)NCC(c2cccnc2)N2CCc3ccccc32)cc1OC (stereo unspecified)	inactive: -0.946%
COc1cccc(S(=O)(=O)N2CCN(Cc3ccc4c(c3)OCO4)CC2)c1	inactive: -7.23%
CN(Cc1ccccc1)S(=O)(=O)c1ccc(-c2cnc(C3CC3)o2)cc1	inactive: 7.47%
Cc1c(C2=CCN(S(=O)(=O)c3cccc(Cl)c3)CC2)c2ccccc2n1CC(=O)N1CCCC1	inactive: -0.0867%
Cc1ccc(NC(=O)C(C)Sc2nc(=O)cc(N)n2-c2cccc(C)c2)cc1 (stereo unspecified)	inactive: -2.7%
Cc1cccc(N2CCN(C(=O)CN3CCSc4ccccc43)CC2C)c1 (stereo unspecified)	inactive: 5.45%
Cc1ccc(C)c(NC(=O)CN2C(=O)COc3ccc(Cl)cc32)c1	inactive: -1.65%
Cn1c(=O)nc2n(-c3ccc(Cl)c(Cl)c3)c3cc(Cl)ccc3cc-2c1=O	inactive: -4.67%
O=C(Nc1c(C(=O)Nc2ccc(F)cc2)oc2ccccc12)c1ccccc1F	inactive: -20.2%
COc1ccccc1CNC(=O)C1CCCN(c2nnc(-n3c(C)ccc3C)s2)C1 (stereo unspecified)	inactive: -1.17%
CC1=C(C(=O)OCC2CCCCC2)C(c2ccccc2F)CC(=O)N1 (stereo unspecified)	inactive: -29.8%
COc1ccc(C(=O)N(Cc2ccc(C(C)C)cc2)C2CCS(=O)(=O)C2)cc1 (stereo unspecified)	inactive: 3.17%
Cc1ccccc1CNS(=O)(=O)c1csc(C(N)=O)c1	inactive: 4.55%
Cc1nc2nc(SCC(=O)NCCc3ccccc3)nn2c(C)c1Cc1c(F)cccc1Cl	inactive: 10.5%
Cc1ccc(C(C)C)c(OCC(=O)N2CCC(c3nc4ccccc4o3)CC2)c1	inactive: -2.84%
CCn1c(SCCOc2ccccc2F)nc2ccccc21	inactive: -7.52%
CCOc1ccccc1C(=O)Nc1ccc2c(c1)N(C)C(=O)c1ccccc1S2	inactive: -14.1%
Cc1nn(-c2ccc(N3CCOCC3)nn2)c(C)c1CCC(=O)NCc1ccc(OC(C)C)cc1	inactive: -5.51%
Cc1c(C2=CCN(S(=O)(=O)c3ccc(CC(C)C)cc3)CC2)c2ccccc2n1CC(=O)N1CCCC1	inactive: -9.04%
